Experimental data taken from article PMC4336329 (PLoS ONE, 2015).
Out of some 310,000 compounds screened, about 2,200 (0.71%) showed an effect of 50% or more. Effects have a minus sign here. The list shows a part of the results.

target: human ether-à-go-go-related gene (hERG) potassium channel (human, UniProt Q12809); test: primary screen, population patch clamp on CHO cells stably expressing hERG
Sequence (Q12809 whole entry, looked up): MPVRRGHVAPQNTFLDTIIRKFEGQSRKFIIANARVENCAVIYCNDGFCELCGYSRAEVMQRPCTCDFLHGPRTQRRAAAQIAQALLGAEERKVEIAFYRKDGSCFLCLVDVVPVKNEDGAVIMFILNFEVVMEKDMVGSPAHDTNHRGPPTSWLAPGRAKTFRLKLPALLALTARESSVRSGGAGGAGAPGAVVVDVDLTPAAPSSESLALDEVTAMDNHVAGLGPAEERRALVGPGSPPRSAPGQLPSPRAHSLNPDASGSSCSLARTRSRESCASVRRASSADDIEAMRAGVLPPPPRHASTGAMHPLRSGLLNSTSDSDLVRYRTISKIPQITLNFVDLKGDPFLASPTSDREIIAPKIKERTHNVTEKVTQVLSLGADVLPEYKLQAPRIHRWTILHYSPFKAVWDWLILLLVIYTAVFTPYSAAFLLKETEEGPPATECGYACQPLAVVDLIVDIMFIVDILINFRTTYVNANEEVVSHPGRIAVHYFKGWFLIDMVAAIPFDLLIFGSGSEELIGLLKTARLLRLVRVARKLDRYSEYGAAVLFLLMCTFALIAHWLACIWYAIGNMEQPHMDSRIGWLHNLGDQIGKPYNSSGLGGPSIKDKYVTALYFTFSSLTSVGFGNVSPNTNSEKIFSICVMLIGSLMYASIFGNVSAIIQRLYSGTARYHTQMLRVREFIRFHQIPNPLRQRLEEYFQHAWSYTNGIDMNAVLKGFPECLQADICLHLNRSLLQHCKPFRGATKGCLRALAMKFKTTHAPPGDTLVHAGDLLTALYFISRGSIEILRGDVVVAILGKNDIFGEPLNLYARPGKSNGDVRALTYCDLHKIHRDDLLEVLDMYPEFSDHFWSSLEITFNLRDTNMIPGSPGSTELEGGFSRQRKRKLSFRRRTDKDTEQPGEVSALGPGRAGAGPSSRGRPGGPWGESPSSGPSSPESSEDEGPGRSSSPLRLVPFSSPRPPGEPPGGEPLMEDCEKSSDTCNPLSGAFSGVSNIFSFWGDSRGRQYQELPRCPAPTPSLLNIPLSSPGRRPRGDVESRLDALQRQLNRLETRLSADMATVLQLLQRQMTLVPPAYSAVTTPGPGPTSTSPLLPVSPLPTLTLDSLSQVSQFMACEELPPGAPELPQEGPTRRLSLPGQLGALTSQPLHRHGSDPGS

Row | SMILES | hERG current change (%, negative = inhibition) at 1uM [%]
1 | CCOC(=O)c1cc2c(=O)n3ccccc3nc2n(CC(C)C)c1=NC(=O)c1c(-c2c(F)cccc2Cl)noc1C | 9.22
2 | CC(Sc1nnc(NCc2ccccc2)s1)C(=O)Nc1ccc2c(c1)C(=O)c1ccccc1C2=O (stereo not drawn) | 15.4
3 | O=c1c[n+]([O-])c2ccccc2n1OCc1c(F)cccc1F | 8.5
4 | O=C(CCc1ccc(S(=O)(=O)N2CCOCC2)cc1)N1CCc2ccccc2C1 | -8.69
5 | O=S(=O)(Nc1ccc2c(c1)OCO2)c1ccc(Cl)cc1F | -2.54
6 | COC(=O)c1sccc1NC(=O)CSc1ccccc1NS(=O)(=O)c1ccc(F)cc1 | 7.96
7 | Cc1[nH]nc(S(=O)CC(=O)O)c1[N+](=O)[O-] (stereo not drawn) | 19.8
8 | COc1cc(/C=C/C(=O)NCc2nc3ccccc3[nH]2)cc(OC)c1OC | 13.9
9 | COc1ccc(S(=O)(=O)CCC(=O)Nc2ccc(OC)cc2OC)cc1 | -0.708
10 | Cn1c(=O)c2ncn(CC(=O)N=Nc3c(O)[nH]c4ccccc34)c2n(C)c1=O | 16.9
11 | Cc1cccc(OCC(=O)NCC(=O)N/N=C/c2ccc(N(C)C)cc2)c1 | -9.84
12 | CN(CC(=O)Nc1cccc(F)c1)C(=O)/C=C/c1ccc(Br)s1 | 10.9
13 | COc1cccc(CNC(=O)C(C)n2ccc3cc(S(=O)(=O)N4CCCC4)ccc32)c1 (stereo not drawn) | 11.9
14 | COc1ccccc1N1CCN(c2ncnc3nc[nH]c23)CC1 | 6.12
15 | CCOC(=O)c1ccc(OCc2c(C)noc2C)cc1 | 3.79
16 | Cc1nn(CC(N)=O)c(=O)c2ccccc12 | -2.76
17 | Cc1ccc(Sc2ncccc2O)cc1 | 13.4
18 | CCOc1ccc(N(C(C)C(=O)NN=C2CCCCCCC2)S(C)(=O)=O)cc1 (stereo not drawn) | 13.6
19 | O=C(N/C(=C\c1ccccc1)C(=O)N1CCOCC1)c1ccccc1Br | 22.1
20 | Cc1ccccc1Cn1nc(C)c(NC(=O)/C=C/c2cnn(C)c2C)c1C | 10.5
21 | O=c1[nH]c(CSc2nnc(-c3cccnc3)n2C2CCCCC2)nc2ccccc12 | 12.1
22 | CC1CCCCN1c1nc2nonc2nc1N1CCCCC1C (stereo not drawn) | -3.06
23 | O=C1C=C(O)c2c(O)cc(O)c(O)c2C1=O | 19.5
24 | CCCN1C(=O)C2(C(C(=O)c3ccc(C)o3)=C(O)C(=O)N2CCCN2CCOCC2)c2ccccc21 (stereo not drawn) | 2.89
25 | COc1ccc(C(=O)Nc2ccc3c(c2)OCCO3)cc1[N+](=O)[O-] | 11.3
26 | CC1=C(C(=O)Nc2ccccc2)C(c2ccco2)C(C#N)=C(SCC(=O)OC(C)C)N1 (stereo not drawn) | 0.326
27 | COc1ccc(OC)c(S(=O)(=O)N2CCC(NC(=O)c3ccccc3)CC2)c1 | 20

Row | SMILES | hERG current change (%, negative = inhibition) at 1uM [%]
28 | CC1=C(/C=C/C(C)=C/C=C/C(C)=C/C(=O)Nc2ccc(O)cc2)C(C)(C)CCC1 | 17.7
29 | C=CCSC1=NNC(c2ccc(C(C)(C)C)cc2)=NN1 | 0.984
30 | COc1cc(OC)cc(C(=O)Nc2ccc3nc4n(c(=O)c3c2)CCCC4)c1 | 17.5
31 | COC(=O)C1=C(c2ccc(OC(F)(F)F)cc2)C[C@@H]2CC[C@H]1N2C(=O)N1CCC(O)CC1 | -0.247
32 | Cc1ccnc(NC(=O)c2ccc(S(=O)(=O)NCc3ccco3)cc2)c1 | 15.3
33 | Cc1cccc(/C=N/NC(=O)c2cccc(Cl)c2)n1 | 8.95
34 | O=C(NCCCN1CCOCC1)c1cc(-c2cccs2)on1 | -7.51
35 | COc1ccc(NC(=O)CN2CCCCC2)c([N+](=O)[O-])c1 | 8.66
36 | Cc1cc(Br)c(NC(=O)COC(=O)CSc2nnc(-c3ccc(Cl)cc3)o2)c(Br)c1 | 11
37 | CC(=O)C1=C(O)C(=O)N(Cc2ccccc2)C1c1cccs1 (stereo not drawn) | 6.06
38 | C(#Cc1ccccc1)C[N+]1(CC#Cc2ccccc2)CCCC1.[Br-] | -17.4
39 | Cc1ccc(C(=O)Nc2ccc(S(=O)(=O)Nc3cnc4ccccc4n3)cc2)cc1 | 14
40 | CSCCC(NC(=O)c1ccco1)C(=O)Nc1cc(C)ccn1 (stereo not drawn) | -28.3
41 | O=C(NC1CCCC1)C(c1cccnc1)N(C(=O)c1ccco1)c1cccc(F)c1 (stereo not drawn) | 19.1
42 | CCNC(=O)COC(=O)c1csc2c1CCCC2 | 15.4
43 | COc1ccc(CCNC(=O)CSc2nc3c(c(=O)n(C)c(=O)n3C)n2C(C)C)cc1OC | -14.5
44 | Cc1ccc(S(=O)(=O)N/N=C/c2cc([N+](=O)[O-])ccc2O)cc1[N+](=O)[O-] | 11.5
45 | COC(=O)c1ccc(NS(=O)(=O)c2ccc3c(c2)oc(=O)n3C)cc1 | 5.99
46 | COc1ccc(S(=O)(=O)N2CCCCCC2)cc1C(=O)Nc1ccccn1 | 5.18
47 | CC(C)C[C@@H](C(=O)O)N(Cc1cccc(CN([C@@H](CC(C)C)C(=O)O)S(C)(=O)=O)c1)S(C)(=O)=O | 6.31
48 | COc1cc2c(cc1OC)CN(C(=O)CCCN1C(=O)c3ccccc3C1=O)CC2 | 6.77
49 | N#Cc1c(NC(=O)C2C3C=CC(C3)C2C(=O)O)sc2c1CCCCC2 (stereo not drawn) | 12.6
50 | COc1ccccc1NC(=O)N1CCC(C(=O)c2ccc(F)cc2)CC1 | 12.9
51 | O=C(Cn1cnc2c(nnn2Cc2ccc(Cl)cc2)c1=O)c1ccccc1 | 11.2
52 | C=CC[n+]1c(-c2ccc(Cl)cc2Cl)csc1Nc1c(C)n(C)n(-c2ccccc2)c1=O.[Cl-] | 12.6
53 | O=C1c2ccccc2C(=O)c2c1cccc2N1CCCC1 | 8.54
54 | CCCCNC(=O)CCCCC(=O)N/N=C/c1cccc(Cl)c1 | 7.51
